This is one part of the list.
B1: ENSG00000107863:be:win_5801|CDS_3pUTR|ENSG00000107863|bound_else_gene|NA|bound_elsewhere_windowed (ssRNA)
RNA: GGGAGUUCUACAGUCCGACGAUCGUUCUGCAGCGAAUGCCCAACCUCAUAAACUGUCUGAAACCCCAGGCAGUAAAGCAGAGUUUCAUCCCUGUCUUUAAACUGGGGGUAUGUCCACUCUAGCAAGUAAAAAAACUACUGUUACAACAGAGGAUUGAGCAUCA
B2: chr6:149379354:149379455:+|CDS|ENSG00000055208|msi1|FALSE|bound_elsewhere (ssRNA)
RNA: GGGAGUUCUACAGUCCGACGAUCAGGGGUGGUGUCCCCUACCUUUGAACUUACAAAUCUUCUUAAUCAUCCUGAUCAUUAUGUAGAAACCGAGAAUAUUCAGCACCUCACGGACCCUACAUUAGCACAUGUGGAUAGAAUAAGCAACAGAGGAUUGAGCAUCA
B3: chr6:119178661:119178762:-|3pUTR|ENSG00000111885|msi1|total|mutant (ssRNA)
RNA: GGGAGUUCUACAGUCCGACGAUCGAAAGAAGCUUUGCCAAUUUUACUUAUUCGUGAUCAAUCAAGGAAAAUCUAAUAAAUUUCCGGCCAAAUAAGAAUACCGCAUAUUCCGUAUGGUUACCGUCAACACAGAGAUCACAACUUCAACAGAGGAUUGAGCAUCA
B4: chr7:138706293:138706717:-|three_prime_utr|ENSG00000105929|control|control|control (ssRNA)
RNA: GGGAGUUCUACAGUCCGACGAUCAUGGUUACAAGUUUUCUCCAUUCUCCUUUAAACACAUCCUGGAUGGCACAGCCGAGGAGUAGGCUGAGGGCUGCACCUCCCACGGUGGUCACCAUGCCAAUGAAGGAAGUUCAGUCUUGUCAACAGAGGAUUGAGCAUCA
B5: ENSG00000124766:be:win_3001|3pUTR|ENSG00000124766|bound_else_gene|NA|bound_elsewhere_windowed (ssRNA)
RNA: GGGAGUUCUACAGUCCGACGAUCUUUUUUUGGUAGUUGUUGUUACCCACGCCAUUUUACGUCUCCUUCACUGAAGGGCUAGAGUUUUAACUUUUAAUUUUUUAUAUUUAAAUGUAGACUUUUGACACUUUUAAAAAACAAAAACAACAGAGGAUUGAGCAUCA
B6: ENSG00000100154:stop:overlap|stop_codon|ENSG00000100154|stop_codon|NA|stop_codon (ssRNA)
RNA: GGGAGUUCUACAGUCCGACGAUCAGCCAGUGAAGGCAGGUGACACUUACCUCCACCAGGUGAUGCAGGCUGUGGUGAUAAACUAGAGUGUGAAGAGCUCAGAGUGCAGCCUCUGGCCUUGCCACUCACAAGCUGUAGGACACUCAACAGAGGAUUGAGCAUCA
B7: ENSG00000175216:stop:overlap|stop_codon|ENSG00000175216|stop_codon|NA|stop_codon (ssRNA)
RNA: GGGAGUUCUACAGUCCGACGAUCGAUGUGGUCUGGACAACACAAAGGUACUGCUCCUUUUCUUCUGUGCAGUUCAGGGAGGGUAGUCACAAGCAGGUCCGAGGCAGGCUGGCCCACAGAGAAGUGGCUUAGUCUUGCUGUAGUCAACAGAGGAUUGAGCAUCA
B8: chr1:17283265:17283432:+|3pUTR|ENSG00000142619|msi1|total|mutant (ssRNA)
RNA: GGGAGUUCUACAGUCCGACGAUCCAUGUGGUUCUCAGACUUGAAUCUUCUCGGCCCCCCAAAAAGAAGGACCUCAUUUCUUACCGCCUCUCCUGUGAUUCAACACAACCCAUGGAGAUGUCCCCUUCUCACUCUGAAAUCAUCCAACAGAGGAUUGAGCAUCA
B9: chr22:45843749:45843850:+|3pUTR|ENSG00000130638|msi1|total|mutant (ssRNA)
RNA: GGGAGUUCUACAGUCCGACGAUCAAAUUGCAAGUGUUUGAAGAUUUAUAAGUACAAAUUUGGGAACAUACAAAUCUUUCCGGCCGCCGAGUUUAACGUGUAUAAGCUAAAAGUGAAAGUAACUGAGUGUUCUCUUGUUUCUUUCAACAGAGGAUUGAGCAUCA
B10: chr1:160214333:160214525:+|3pUTR|ENSG00000162734|msi1|total|mutant (ssRNA)
RNA: GGGAGUUCUACAGUCCGACGAUCCUACAGUGUUUUCCUUUGCACCGAUCCCCACCCCAAUUCAAUCCCGGAAGGGACUUACUCCGGAAACCCUUCUUUACCCGAUAUCCUGGCCCCCUGGGCUUGUGAACACCUCCCCGCCACCAACAGAGGAUUGAGCAUCA
B11: chr2:212999690:213008084:-|three_prime_utr|ENSG00000030419|control|control|control (ssRNA)
RNA: GGGAGUUCUACAGUCCGACGAUCACAAUCGCUGAAGUGGCCCCAGUUAUAAGCUCAGCUUAUUCUCAGGUCUAUCAUCCAAAUAGGAUAGAAAGACCCAUUAGCAGGGAAACUGCUGAUAGUCAUGAAAACAACAUGGAUGGCCAACAGAGGAUUGAGCAUCA
B12: chr7:7234405:7234460:+|CDS|ENSG00000106392|msi1_unk|FALSE|overlapping (ssRNA)
RNA: GGGAGUUCUACAGUCCGACGAUCAAUUUUUUAACCUUCCUCUGUGGAUCAGCAAUAGGAUUUCUUUUAUGUUCUCAGCUAUUUAGUAUUUUGUUGGGAGAAAAGGUUGACACCCAGCCUAAUGUUCUUCAUAAUGAUCCUCAUCAACAGAGGAUUGAGCAUCA
B13: chr8:17644361:17644462:-|3pUTR|ENSG00000129422|msi1|FALSE|bound_elsewhere (ssRNA)
RNA: GGGAGUUCUACAGUCCGACGAUCCAACAUUGUGAUGUCAGUAUUUACUAAUCUACAUUCAGUGGCUGUACAAAUAACAGCUGUAGUAAGAAGAGAUUCAGGAUGCUAGAGGUGAAUAUUUGGGUCAUUUACAUGUACACUACACAACAGAGGAUUGAGCAUCA
B14: chr18:2547350:2547451:-|CDS|ENSG00000101574|unk|FALSE|unique (ssRNA)
RNA: GGGAGUUCUACAGUCCGACGAUCUAGACAGAAGCACCUACGUUUUAUAAAGGAAGAACUUUAUCCCUCUUGGUCUGUGGAGGUAGUUGCUGAGUGGCACUGGGUAAAAGUAAGUUCAGAAGUUAGCUUAUUUGUUAAUACAGCCAACAGAGGAUUGAGCAUCA

Target: MSI1 full-length (mouse, UniProt Q61474 1-362)
Test: nsRBNS (natural sequence RNA bind-n-seq); RBNS binding buffer (assumed for nsRBNS): 25 mM Tris pH 7.5, 150 mM KCl, 3 mM MgCl2, 0.01% Triton X-100, 500 ug/ml BSA, 20 U/ml SUPERase-In, 4 C; UNK is unkempt and MSI1 is Musashi-1; names of the RNAs are library labels; protein concentration not given here; high values mean tight binding

Sequence of UniProt Q61474 (Q61474 whole entry): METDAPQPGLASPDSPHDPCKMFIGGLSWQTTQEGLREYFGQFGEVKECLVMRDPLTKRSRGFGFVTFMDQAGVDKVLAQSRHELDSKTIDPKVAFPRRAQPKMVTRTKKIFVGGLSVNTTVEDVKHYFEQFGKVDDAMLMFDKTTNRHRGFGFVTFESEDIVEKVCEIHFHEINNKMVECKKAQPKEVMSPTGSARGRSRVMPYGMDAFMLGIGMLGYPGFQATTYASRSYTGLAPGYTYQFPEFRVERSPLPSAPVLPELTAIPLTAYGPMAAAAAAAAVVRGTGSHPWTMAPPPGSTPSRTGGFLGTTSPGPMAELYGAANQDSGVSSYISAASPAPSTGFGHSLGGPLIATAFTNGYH

Binder	binding signal
B1	0.416 enrichment R
B2	1.1 enrichment R
B3	0.378 enrichment R
B4	0.36 enrichment R
B5	2.31 enrichment R
B6	4.77 enrichment R
B7	0.292 enrichment R
B8	0.387 enrichment R
B9	0.458 enrichment R
B10	0.883 enrichment R
B11	0.33 enrichment R
B12	2.66 enrichment R
B13	0.442 enrichment R
B14	1.58 enrichment R

Source: publication PMC12136788
